Data on 85 molecules can be found in PubChem BioAssay AID1346428 (National Center for Advancing Translational Sciences (NCATS), 2018).

About 1,200 (2.5%) of roughly 48,000 compounds were called active. About 2% were inconclusive and are not listed.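 How the source made its calls: active means activation of at least 60% and not above a set upper limit (about 1 call in 100 departs from these limits); inconclusive means activation of 40% to 60%, or above that upper limit; inactive means activation under 40%.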 Some of the results follow.

The target of the assay is Probable G-protein coupled receptor 32 (Homo sapiens) (UniProt O75388). As to the kind of experiment: qHTS for Agonists of Human Resolvin D1 Receptor DRV1. Further: 0% is about no effect. The settings on record: CHO-K1 GPR32 beta-arrestin PathHunter luminescence, 90 min; at 76.9 µM; stronger effect = higher value; zero percent set by DMSO-only wells. The procedure, abridged: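 Cells are plated overnight, treated with compounds in DMSO for 90 minutes at 37 °C, and developed with PathHunter detection reagent for 1 hour before luminescence is read; signal reflects beta-arrestin binding to GPR32 in engineered CHO-K1 cells.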
UniProt O75388, sequence (O75388 whole entry, looked up): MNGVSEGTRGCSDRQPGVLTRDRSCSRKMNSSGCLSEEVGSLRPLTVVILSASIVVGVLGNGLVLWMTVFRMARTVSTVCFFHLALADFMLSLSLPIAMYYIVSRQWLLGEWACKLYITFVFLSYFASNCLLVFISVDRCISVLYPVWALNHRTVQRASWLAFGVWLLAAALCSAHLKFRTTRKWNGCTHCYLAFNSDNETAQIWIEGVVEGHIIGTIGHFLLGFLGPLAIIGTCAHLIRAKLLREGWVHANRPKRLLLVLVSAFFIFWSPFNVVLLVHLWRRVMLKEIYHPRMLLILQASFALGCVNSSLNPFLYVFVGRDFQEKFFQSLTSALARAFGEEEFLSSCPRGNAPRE
As for `Cc1ccc(OC(C)C(=O)N2CCN(CCc3ccncc3)CC2)cc1C` (stereo not given), the activation is inactive: 0.702%. Turning to `Cc1cccc(C(=O)NCCc2nc3ccccc3n2Cc2ccc(Cl)cc2)c1`, the activation is inactive: 17%.

`CC(Sc1nc2c(c(=O)[nH]1)CCCC2)C(=O)Nc1cc(C(F)(F)F)ccc1Cl` (stereo not given): the activation is inactive: 24.9%. In the case of `COCCCNC(=O)C1CCC(Cn2c(=O)c3sccc3n(C)c2=O)CC1` (stereo not given), the activation is inactive: 4.17%.

In the case of `CCC(CC)C(=O)Nc1ccccc1SCc1cc(=O)c2cccc(C)c2[nH]1`, the activation was inactive: 13.4%. On to `CCOc1ccc(-c2cc3c(=O)n(Cc4nc(-c5ccccc5OCC)oc4C)ccn3n2)cc1Cl`, for which the activation was inactive: 13.4%. Turning to `Cc1ccc(Cn2c(C)c(CNCC(C)c3ccccc3)c(C(=O)O)c2C)cc1` (stereo not given), the activation is active: 75.2%. Regarding `Cc1ccc(NC(=O)c2ccc(Cl)cc2Cl)c(C(=O)c2ccccc2)c1`, the activation was inactive: -20.2%. On to `Cc1ccc(NC(=O)CN2CCN(c3ccccc3F)CC2)cc1F`, for which the activation is inactive: -8.75%. With `CCOC(=O)C1CCN(c2nc3c(S(=O)(=O)c4ccccc4)nnn3c3ccc(Cl)cc23)CC1`, the activation was inactive: -9.79%. Regarding `CC1=C(C(=O)Nc2ccccc2)C(c2cccc(Cl)c2)n2nc(SCC(=O)c3ccc(C)cc3)nc2N1` (stereo not given), the activation was inactive: -4.95%. On to `O=C(NCc1ccccc1F)C(=O)NCC(c1ccco1)S(=O)(=O)c1cccs1` (stereo not given), for which the activation is inactive: -9.92%. The same measure for `CCOc1ccc(NC(=O)CCCc2nnc3n(C)c(=O)c4sccc4n23)cc1`: inactive: -19.4%. In the case of `Cc1cccc(OCC(=O)Nc2ccccc2C(=O)OCc2cc(=O)n3nc(C)sc3n2)c1`, the activation was inactive: -18.2%. For `Cc1ccc(Cn2c(=O)n(CCCCC(=O)NCc3ccccc3Cl)c(=O)c3ccccc32)cc1`, the activation was inactive: 10.4%. As for `O=c1[nH]c2ccc(NCc3ccc(-c4ccccc4)o3)cc2[nH]1`, the activation was inactive: 29.5%.

With `O=C(Nc1ccc2oc(-c3ccc4ccccc4c3)nc2c1)c1ccc(Cl)c(Cl)c1`, the activation was inactive: -8.2%. For `CCOc1ccccc1Nc1sc(C(=O)c2ccccc2)c(N)c1S(=O)(=O)c1ccc(C)cc1`, the activation was inactive: 9.26%. As to `COc1ccc(OC)c(NC(=O)c2cn(CC(C)C)c(=O)c3cc(OC)c(OC)cc23)c1`, the activation is inactive: 12.2%. For the molecule `Cc1ccc(CCNC(=O)c2cc3c(-c4ccccc4F)nn(C)c3s2)cc1`, the activation is inactive: 38.2%. For the molecule `COCCCNC(=O)c1ccc2c(c1)nc(C)n2-c1cccc(C)c1`, the activation was inactive: -7.5%.

For the molecule `CCOc1ccc(-c2oc3ccc(C)cc3c(=O)c2O)cc1`, the activation was inactive: -3.12%.

`Fc1ccc(Nc2ncnc3c2nc2n3CCCCC2)c(F)c1`: the activation was inactive: 41.4%.

As to `CCN(c1ccccc1)S(=O)(=O)c1ccc(NC(=O)c2cc(=O)c3ccccc3o2)cc1`, the activation is inactive: -11.1%.

On to `Nc1ccc(N2C(=O)c3ccccc3C2=O)c(Cl)c1`, for which the activation was inactive: 8.03%. On to `O=C(Nc1ccc(C(=O)OCc2cc(=O)n3nc(C4CC4)sc3n2)cc1)c1cccc(F)c1`, for which the activation was inactive: 2.2%. As to `COc1ccc2c(CNC3CCCCCC3)c(C(=O)O)n(Cc3ccccc3F)c2c1`, the activation is inactive: -4.09%.

Turning to `CCOC(=O)c1c(S(=O)(=O)N2CCC(C(=O)Nc3ncccc3C)CC2)c(C)n(C)c1C`, the activation was inactive: -11.9%.

Regarding `CN1CCc2cc(Cl)c(O)cc2[C@@H](c2ccccc2)C1`, the activation is inactive: 0.994%. In the case of `CCOC(=O)c1cc(-c2ccc(OC)cc2)n(CCC(=O)NC2CCCCC2)c1C`, the activation is inactive: -37.6%. Under `O=C(Nc1ccc(F)cc1)C1CCN(S(=O)(=O)c2ccc3c(c2)CCCN3C(=O)C2CCC2)CC1` stands inactive: -23.7%. Under `CCOC(=O)c1cnc2ccc(C)cc2c1Nc1ccc(N(CC)CC)cc1` stands inactive: 43%; under `CCC(=O)N1CCc2cc(Br)cc(S(=O)(=O)CCC(=O)N3CCN(c4cc(C)ccc4C)CC3)c21`, inactive: -5.44%. Under `CCCc1nnc(NC(=O)c2cc(=O)c3cc(C)c(C)cc3o2)s1` stands inactive: -11.5%; under `Cc1c(C(=O)OC2CCCCC2)[nH]c2c1C(=O)CC(c1ccc(C(C)(C)C)cc1)C2` (stereo not given), inactive: 4.85%.

Turning to `CCOC(=O)c1cc(S(=O)(=O)NCc2cccc(Cl)c2)[nH]n1`, the activation is inactive: -19.6%.

As for `Cc1cccc(C(=O)Nc2sc3c(c2C(=O)NC(C)C)CCCC3)c1`, the activation is inactive: -6.8%. Take `Cn1c(=O)c2c(nc(NCCc3ccccc3)n2Cc2ccc(Cl)cc2)n(C)c1=O`: the activation is active: 72.7%. Consider `CCOC(=O)c1cnc2cc(F)c(F)cc2c1Nc1ccccc1O`, for which the activation is inactive: 2.82%. For `Nc1nnnn1-c1ccccc1`, the activation is inactive: -11.3%. Under `CC(C)(C)OC(=O)N1CCC(c2c(C(=O)N3CCCCC3)cnn2-c2cccc(F)c2)CC1` stands inactive: 2.2%; under `Cc1ccc(CNC(=O)CSc2ncc3c(n2)-c2ccc(Cl)cc2N(Cc2ccccc2)S3(=O)=O)cc1`, inactive: 12%.

Take `Cc1ccc(NS(=O)(=O)c2cc3[nH]c(=O)c(=O)[nH]c3cc2C)cc1N(C)C`: the activation is inactive: -15.6%. As for `CCc1ccccc1NC(=O)[C@@H](c1ccccc1)N1Cc2ccccc2C1=O`, the activation is inactive: -7.59%. As to `Cc1ncc(CO)c(CO)c1O`, the activation was inactive: -12.9%. Turning to `Cc1ccc(NC(=O)CCCn2c(=O)c3cccn3c3cccnc32)cc1C`, the activation is inactive: -3.02%.

As to `Cc1ccc(C)c(NC(=O)CSc2nnc(-c3cc4occc4n3C)n2-c2ccccc2C)c1`, the activation was inactive: -26.1%. With `CC(=O)c1ccc(N2CCN(C(=O)CCc3nnc4n(C)c(=O)c5sccc5n34)CC2)cc1`, the activation was inactive: 6.17%.

Turning to `COc1cc(OC)c(NC(=O)c2noc3c2CSc2ccccc2-3)cc1Cl`, the activation is inactive: -15.1%. For the molecule `CCCCn1c(SCC(=O)Nc2ccc(OCC)cc2)nc2ccsc2c1=O`, the activation was inactive: -2.05%.

For `CC(=O)N1CCc2c(sc3c2c(=O)n(-c2cc(Cl)ccc2C)c(=O)n3Cc2ccccc2F)C1`, the activation was inactive: -4.23%. Turning to `CC1(C)CC(=O)c2c(oc3c(Cl)cc(NS(=O)(=O)c4ccc(Br)cc4)cc23)C1`, the activation is inactive: -4.15%. Turning to `CC(C)CC(=O)Nc1ccccc1OCc1cc(=O)n2ccccc2n1`, the activation was inactive: -11%. `COc1ccc(C(=O)COC(=O)CCCC(=O)Nc2cc(C(F)(F)F)ccc2Cl)cc1`: the activation was inactive: 3.91%.

For the molecule `COC(=O)c1cc(Cl)ccc1NC(=O)CSc1ncc(S(=O)(=O)c2ccc(Br)cc2)c(=O)[nH]1`, the activation was active: 100%.

Consider `O=C(Nc1ccc(Br)cc1F)N1CCC(CN2CCc3ccccc3C2)CC1`, for which the activation was inactive: -29.1%. Consider `Cc1ccc(Nc2c(-c3ccc(C)s3)nc3ncccn23)cc1`, for which the activation is inactive: -15.1%.

`CCCCOC(=O)c1ccc(NC(=O)c2cc(-c3cccs3)on2)cc1`: the activation is inactive: 6.17%. The same measure for `COc1ccc(OCC(=O)OCc2cc(=O)n3nc(C4CC4)sc3n2)cc1`: inactive: 31.4%; for `Cc1ccc(NC(=O)C(=O)NCC(c2ccc3c(c2)OCO3)N2CCOCC2)cc1C` (stereo not given): inactive: -3.19%; for `CCC(C)NC(=O)c1ccc2nc(CCc3ccccc3)oc2c1` (stereo not given): inactive: -5.3%. Take `Cc1ccc(CNC(=O)CCCc2nnc3n(C)c(=O)c4sccc4n23)cc1`: the activation was inactive: 0.171%. Regarding `O=C(NCCc1ccc(Cl)cc1)c1cc(-c2ccc(Cl)cc2)n[nH]1`, the activation is inactive: 0.979%. With `Cc1cccc(-c2nc(Cn3c(SCc4cc(C)ccc4C)nc4ccncc43)c(C)o2)c1`, the activation was inactive: 13.5%. Regarding `O=C(NCc1ccccc1Cl)C1CCC(CNS(=O)(=O)c2ccc(Br)s2)CC1` (stereo not given), the activation was active: 98.2%. Turning to `CCc1ccc(NC(=O)CSc2nc3ccsc3c(=O)n2C(C)CC)cc1` (stereo not given), the activation was inactive: -22.1%. The same measure for `Cc1ccc(N(Cc2cccs2)C(=O)COc2ccccc2[N+](=O)[O-])cc1`: inactive: -21.3%; for `O=C(c1ccco1)n1nc(-c2ccccc2)nc1NCc1ccccc1Cl`: inactive: -15.3%.

Consider `CC(=O)Nc1ccc(S(=O)(=O)NCCc2csc3nc(-c4cccc(C)c4)nn23)cc1`, for which the activation is inactive: 15.8%. For the molecule `COc1ccc(CCNC(=O)c2nn(C)c3c2CSc2ccccc2-3)cc1OC`, the activation is inactive: -11.4%. The same measure for `O=C(NCc1ccccc1)C(=O)NCC(c1cccnc1)N1CCN(c2ccccc2)CC1` (stereo not given): inactive: -13.6%; for `CNS(=O)(=O)CCc1ccc2[nH]cc(C3CCN(C)CC3)c2c1`: inactive: 3.88%; for `Cc1ccc(-c2nn3c(-c4ccc(C)cc4)nnc3c3ccccc23)cc1`: inactive: -2.78%.

In the case of `O=C(CCCn1c2ccccc2c(=O)c2ccccc21)Nc1ccc(F)cc1Cl`, the activation was inactive: 22.6%. The same measure for `COc1cc(CN(C(=O)c2oc3ccccc3c2C)C2CCS(=O)(=O)C2)cc(OC)c1OC` (stereo not given): inactive: -10%. With `COc1ccccc1-n1c(SCC(=O)Nc2ccc(C)cc2)nc(O)cc1=O`, the activation was inactive: -4.99%. Regarding `COc1ccccc1CNC(=O)CCC1N=C2c3ccccc3N=C(SCC(=O)NCCc3ccc(OC)c(OC)c3)N2C1=O` (stereo not given), the activation was inactive: -20.9%. In the case of `Cc1ccc(-c2nc(S(=O)(=O)c3ccc(C)cc3)c(SCC(=O)NC3CCCCC3)o2)cc1`, the activation was inactive: -11.3%. Under `COc1cccc(NC(=O)c2cc3c(=O)n(Cc4cccnc4)ccc3nc2C)c1` stands inactive: -5.77%; under `COc1ccc(-c2noc(-c3ccc(NC(C)c4ccccc4)c([N+](=O)[O-])c3)n2)cc1OC` (stereo not given), inactive: 15.4%.

As to `CCc1ccc(-c2cc(C)no2)cc1S(=O)(=O)Nc1ccc(Cl)cc1`, the activation was inactive: -3.14%. With `COc1cc(NS(=O)(=O)c2ccc3oc(=O)c4ncn(C)c4c3c2)cc(OC)c1`, the activation was inactive: 0.678%. Consider `CCN1CCC(N(Cc2ccc3c(c2)OCO3)C(=O)Nc2ccccc2OC)CC1`, for which the activation was inactive: -8.9%. With `CCOC(=O)c1c(C)[nH]c(CCC(=O)NCc2ccccc2C)c1C`, the activation is inactive: -1.66%.

For the molecule `CN(C)c1ccc(NC(=O)CSC2=Nc3ccccc3C3=NC(CC(=O)NCc4ccccc4)C(=O)N23)cc1` (stereo not given), the activation is inactive: -4.2%.
